From paper PMC4336329 (PLoS ONE, 2015)
The campaign covered roughly 310,000 compounds. About 2,200 (0.71%) showed an effect of 50% or more. Effects have a minus sign here. Some of the results follow.

molecular target: human ether-à-go-go-related gene (hERG) potassium channel (human, UniProt Q12809); test: primary screen, population patch clamp on CHO cells stably expressing hERG
Sequence (Q12809 whole entry, looked up): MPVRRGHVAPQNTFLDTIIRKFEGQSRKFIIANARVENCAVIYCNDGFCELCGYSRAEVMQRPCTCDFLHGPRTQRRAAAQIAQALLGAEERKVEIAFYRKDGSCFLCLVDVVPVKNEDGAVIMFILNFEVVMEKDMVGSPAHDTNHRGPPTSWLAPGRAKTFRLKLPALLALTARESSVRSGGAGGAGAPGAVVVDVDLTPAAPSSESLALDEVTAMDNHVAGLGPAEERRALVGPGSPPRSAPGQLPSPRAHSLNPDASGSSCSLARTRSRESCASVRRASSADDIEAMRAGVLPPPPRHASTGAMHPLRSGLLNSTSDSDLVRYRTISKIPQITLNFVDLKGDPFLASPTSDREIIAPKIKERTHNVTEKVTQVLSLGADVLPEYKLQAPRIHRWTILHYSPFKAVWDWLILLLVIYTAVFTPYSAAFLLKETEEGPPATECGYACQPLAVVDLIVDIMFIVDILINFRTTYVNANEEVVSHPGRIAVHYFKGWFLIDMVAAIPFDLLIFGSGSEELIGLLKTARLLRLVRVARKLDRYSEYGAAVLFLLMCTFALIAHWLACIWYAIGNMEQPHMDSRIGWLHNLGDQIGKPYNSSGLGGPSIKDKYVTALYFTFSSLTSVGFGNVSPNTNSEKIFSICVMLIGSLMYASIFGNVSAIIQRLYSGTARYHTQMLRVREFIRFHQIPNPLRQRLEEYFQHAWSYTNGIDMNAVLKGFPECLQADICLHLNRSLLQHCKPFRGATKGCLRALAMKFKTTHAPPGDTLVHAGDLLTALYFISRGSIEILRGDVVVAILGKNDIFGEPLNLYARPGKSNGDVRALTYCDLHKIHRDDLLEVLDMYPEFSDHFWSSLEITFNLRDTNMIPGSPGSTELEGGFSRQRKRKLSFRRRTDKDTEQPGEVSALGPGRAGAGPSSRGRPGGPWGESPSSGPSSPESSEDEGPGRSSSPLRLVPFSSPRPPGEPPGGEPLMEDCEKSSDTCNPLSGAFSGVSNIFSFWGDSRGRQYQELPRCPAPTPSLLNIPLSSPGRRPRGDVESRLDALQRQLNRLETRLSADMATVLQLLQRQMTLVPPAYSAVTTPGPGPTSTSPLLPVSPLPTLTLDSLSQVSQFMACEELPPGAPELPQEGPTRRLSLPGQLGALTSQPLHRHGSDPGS

Row | Compound | hERG current change (%, negative = inhibition) at 1uM
1 | COc1ccc(N2CCN(C(c3cccs3)c3nnnn3C3CCCC3)CC2)cc1 (centres unmarked) | -8.12%
2 | CCCCN(C(=O)c1ccccc1OCc1ccc(F)cc1)c1c(N)n(CC(C)C)c(=O)[nH]c1=O | 6.23%
3 | COc1ccc(Cl)cc1/C=N/NC(=O)c1c(-c2ccccc2)noc1C | 6.85%
4 | N/C(=N\OC(=O)c1ccccc1Cl)c1ccncc1 | 10.3%
5 | Nc1nc(Sc2ccc(C(F)(F)F)cc2[N+](=O)[O-])n[nH]1 | 0.481%
6 | Cc1cc(C)cc(N2CC(C(=O)Nc3cc(C)on3)CC2=O)c1 (centres unmarked) | 13.5%
7 | Cn1c(/C=C/N(Cc2ccccc2)c2ccccc2)c([N+](=O)[O-])c(=O)n(C)c1=O | -8.63%
8 | CCOc1cc(-c2noc(CCC(=O)NCC3CCCO3)n2)ccc1OC (centres unmarked) | 11.2%
9 | CCOC(=O)c1c(C)[nH]c(C(=O)COC(=O)Cn2cc(C(F)(F)F)ccc2=O)c1C | 17.5%
10 | CCn1c(SCC(=O)Nc2ccccc2)nnc1-c1ccc(S(=O)(=O)N2CCOCC2)cc1 | 4.24%
11 | COC(=O)C1=C(c2ccc(F)cc2OCc2ccccc2)C[C@@H]2CC[C@H]1N2C(=O)NCc1ccc(Br)cc1 | 18.1%
12 | COc1ccc(-c2cc3nc(C)cc(C)n3n2)cc1 | 3.78%
13 | CCc1nc(SCCO)c2oc3ccccc3c2n1 | 13.5%
14 | O=C(COc1ccc(-c2ccccc2)cc1)N/N=C/c1cccnc1 | 11.7%
15 | COc1ccccc1CCNC(=O)C(=O)NCCC1CCCCN1S(=O)(=O)c1ccccc1 (centres unmarked) | -2.26%
16 | c1ccc(-c2nc(-c3cccs3)[nH]c2-c2ccccc2)cc1 | 20.2%
17 | O=C(O)C1CCC(N2C(=O)C3CCCCC3C2=O)CC1 (centres unmarked) | 9.98%
18 | O=C(N=Nc1c(O)n(Cc2ccccc2)c2ccccc12)c1cc2ccccc2cc1O | 14.7%
19 | Cn1c(C(=O)NCc2ccccn2)cc2c(=O)n(C)c3ccccc3c21 | 6.99%
20 | OC(CN1c2ccccc2Sc2ccccc21)Cn1nnc2ccccc21 (centres unmarked) | 12.9%
21 | Cl.Nc1nonc1C(=O)NCCNCc1ccccc1OCc1ccccc1F | -10.8%
22 | CCN(Cc1cccc(OC)c1)CC1CCCN(CCc2cccc(OC)c2)C1 (centres unmarked) | 6.78%

Row | Compound | hERG current change (%, negative = inhibition) at 1uM
23 | CCc1cc(C(=O)OC)c(NC(=O)CN2CCN(C(=O)C3CCCO3)CC2)s1 (centres unmarked) | -19.5%
24 | COc1ccc(C(CNC(=O)Cc2ccccc2)N2CCCCC2)cc1 (centres unmarked) | 13.3%
25 | Clc1ccc(SCc2cc(-c3ccccc3)no2)cc1 | 2.91%
26 | COC(=O)c1scc(C)c1N/N=C(\C)c1ccc(F)cc1F | 3.73%
27 | Cc1nc2ccccc2c(=O)n1/N=C/c1ccncc1 | 13.1%
28 | OCC(O)/C=N/Nc1nc(Nc2ccccc2)nc(Nc2ccccc2)n1 (centres unmarked) | 4.04%
29 | C#CCOCCOCCOCCNc1nc(N2CCN(C(=O)[C@H]([C@@H](C)CC)n3cc([C@@H](N)CC(C)C)nn3)CC2)nc(N2CCN(C(=O)[C@H]([C@@H](C)CC)n3cc([C@@H](N)CC(C)C)nn3)CC2)n1.Cl | 3.85%
30 | CN(CCOc1ccc(Cl)cc1)C(=O)CN1C(=O)NC2(CCCCC2)C1=O | -2.65%
31 | COc1ccc2ccccc2c1/C=N/n1cnnc1 | 9.2%
32 | Cc1ccc2[nH]c(=O)c3cc(C(=O)N(C)Cc4ccco4)sc3c2c1 | 12.3%
33 | Clc1ccc(CCNc2nc3ccccc3s2)cc1 | 3.14%
34 | CS(=O)(=O)c1ccc(-n2nnc3ccccc32)c([N+](=O)[O-])c1 | 10.8%
35 | COc1cccc(CSc2nc3cc4c(cc3cc2C)OCCO4)c1 | 17.1%
36 | Cn1cc([N+](=O)[O-])c(C(=O)NCc2cc3cc(Cl)ccc3[nH]2)n1 | 6.09%
37 | COc1ccc(N2CCN(C(=O)COC(=O)COc3cccc(C(F)(F)F)c3)CC2)cc1 | 7.75%
38 | COCCOC(=O)C1=C(C)NC2=C(C(=O)CC(C)(C)C2)C1c1cccnc1 (centres unmarked) | 17.6%
39 | COc1cccc(C(=O)N/N=c2/oc3ccccc3cc2C(N)=O)c1 | 5.68%
40 | C/C(=N\NC(=O)Cn1ccc(C(F)(F)F)n1)c1ccc2c(c1)OCO2 | 6.5%
41 | Cc1cnc(CN2CCCC(C(=O)c3ccc4c5c(cccc35)CC4)C2)[nH]1 (centres unmarked) | 3.77%
42 | Cc1ccc(NC(=O)NNC(=O)C2CC(c3cccnc3)=NO2)cc1 (centres unmarked) | 8.91%
43 | COCC(C)N1CCC(n2nccc2NC(=O)c2ccc3c(c2)OCO3)CC1 (centres unmarked) | 16.6%
44 | O=C(CSc1nnc(Cc2ccccc2)o1)c1ccc(F)cc1 | 8.66%

Row | Compound | hERG current change (%, negative = inhibition) at 1uM
45 | Cc1nc2ccccc2c(=O)n1-c1ccc(Br)cn1 | 3.3%
46 | O=C(CSc1ccc(Cl)cc1)N1CCN(c2c(Cl)cccc2[N+](=O)[O-])CC1 | 0.29%
47 | C/C(CC(=O)Nc1cccc(Br)c1)=N\NC(=O)c1ccc(O)cc1O | 12.1%
48 | Clc1ccc(CSc2nnc(-c3ccncc3)o2)cc1 | 4.32%
49 | COc1ccc(OC)c(S(=O)(=O)Nc2cc(C(=O)O)ccc2N2CC3CC(C2)c2cccc(=O)n2C3)c1 (centres unmarked) | 10.1%
50 | Cc1nnc(SCC(=O)O)o1 | 13.8%
51 | COC(=O)c1ccc(NC(=O)CSc2nnc(-c3ccccc3Br)n2-c2ccccc2)cc1 | 6.23%
52 | Clc1cccc(-c2sc(Nc3ccccc3)n[n+]2-c2ccccc2)c1Cl.[Cl-] | 17.6%
53 | O=[N+]([O-])c1ccccc1S(=O)(=O)NCc1ccco1 | 7.99%
54 | CC1=CC(=C2C(=O)NC(=S)NC2=O)C=C(C(F)(F)F)N1C | 12.6%
55 | COc1cc(CC(=O)N(c2ccccc2)c2nc(C)cs2)cc(OC)c1OC | -2.86%
56 | O=C(Nc1ccccc1C(=O)NCCN1CCOCC1)c1ccc(Cl)cc1Cl | 8.86%
57 | C/C(=N\N1CCCCCC1)c1c(O)n(-c2ccc(Cl)cc2)c(=O)[nH]c1=O | 11%
58 | O=C(NCc1csc(-c2cccs2)n1)Nc1ccc(F)cc1F | 12.4%
59 | CN(CC(=O)N1CCCCCC1)S(=O)(=O)c1ccc(Br)cc1 | 0.738%
60 | CC(C)(C)OC(=O)N[C@@H](C(=O)OC(C)(C)C)c1ccccc1 | 9.82%
61 | CCC1Oc2ccccc2N(CC(=O)NCCCN2CCN(Cc3ccccc3)CC2)C1=O (centres unmarked) | -21.6%
62 | NC(=O)c1ccc(NC(=O)COC(=O)c2cc(S(=O)(=O)N3CCOCC3)ccc2N2CCCCC2)cc1 | 10.7%
63 | CCN(CC)CCn1c2ccccc2c2nc3ccccc3nc21 | 12.8%
64 | CC1=CN2C(=N)/C(=C/c3ccc(C)o3)C(=O)N=C2S1 | 7.53%
65 | CCOC(=O)c1c(NC(=O)C(F)(OC)C(F)(F)F)sc2c1CCN(C)C2 (centres unmarked) | 6.95%
66 | O=C(CCc1ccccc1)NC(=S)Nc1ccc(S(=O)(=O)N2CCOCC2)cc1 | 12%

Row | Compound | hERG current change (%, negative = inhibition) at 1uM
67 | O=C(CCC(=O)N1CCN(c2ccc(F)cc2)CC1)c1ccccc1 | 15.4%
68 | CN1CCN(c2ccc(N)c(N3CCN(C)CC3)c2)CC1 | 16.1%
69 | COC(=O)C(C(=O)OC)c1ccc(-n2cccc2)cc1 | 14.9%
70 | COc1ccc(C2=NS(=O)(=O)N(C)C(C(=O)NC3CCCC3)=C2)cc1 | 9.89%
71 | CC(C)c1nc2ccc(NC(=O)C34CC5CC(CC(C5)C3)C4)cc2[nH]1 | 11.3%
72 | COc1ccc(CNC(C)Cc2cccs2)cc1 (centres unmarked) | -0.498%
73 | O=C(Nc1ccccc1)c1cccnc1NCCc1ccccc1 | -1.34%
74 | CNc1nc(C)c([N+](=O)[O-])c(Nc2ccc(OC)cc2)n1 | 13.3%
75 | O=C(NCc1ccc(N2CCCC2=O)cc1)c1cn(Cc2ccccc2)nn1 | 7.7%
76 | COc1ccc(-c2ncccc2OC(=O)C23CC4CC(CC(C4)C2)C3)cc1.Cl.O | 8.65%
77 | Cc1cc(C)n(-c2ccc(C(=O)Nc3cccc([N+](=O)[O-])c3)cc2)n1 | 29%
78 | CS(=O)(=O)Nc1ccc(C(=O)N2CC(=O)Nc3ccccc32)cc1 | 12%
79 | CC(NS(=O)(=O)c1ccc(Br)cc1)C(c1cccs1)N1CCN(C)CC1 (centres unmarked) | -23.9%
80 | N/C(=N\OC(=O)CCc1ccccc1)c1ccc(Cl)cc1 | 12.3%
81 | Cc1ccc(NCc2nc3ccccc3n2CCOc2ccccc2)cc1 | 11.2%
82 | CC(=O)Nc1ccc(S(=O)(=O)NC2(C(F)(F)F)NC(=O)N(C3CCCC3)C2=O)cc1 (centres unmarked) | 14.2%
83 | C[n+]1ccc(C(=O)N/N=C/c2ccco2)cc1.[I-] | 19.8%
84 | NC(=O)c1sc2nc(N3CCOCC3)c3c(c2c1N)CCCC3 | 9.39%
85 | O=C(NCc1ccco1)C1CCN(S(=O)(=O)c2cccc([N+](=O)[O-])c2)CC1 | 9.71%
86 | c1ccc2cc(Cn3ccnc3)ccc2c1 | 9.53%
